In all, about 45,000 compounds went through this assay and about 200 (0.44%) were called active. Another 7% or so got no clear call; they are omitted. The call rests on the fitted dose curve; in most records, active means well fitted activation curve with a large enough effect; inconclusive means small, poorly fitted or top-dose-only effect; inactive means no such curve, though single readings can be large or run the other way. Some of the results follow.
Assay: qHTS of TDP-43 Inhibitors: NCGC Sytravon Library Screen; further: 0% is about no effect; nearly all actives have a fitted effect of over 55% in size
Conditions: yeast TDP-43 toxicity rescue, BacTiter-Glo growth, 24 h; series mostly up to 46.1 µM; growth rescue (activation): at the top concentration
Procedure, shortened: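 TDP-43-expressing yeast, pregrown in raffinose, seeded at OD600 0.02 in galactose medium with compound for 24 hr at 30 deg C. Growth read by BacTiter-Glo luminescence, so rescue of toxicity appears as activation.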

SMILES | growth rescue (activation)
COc1ccccc1CN1CCNC(=O)C1CC(=O)O (stereo unspecified) | inactive: -7.49%
COc1ccc(NC(=O)CCCc2nc3ccccc3c(=O)[nH]2)cc1Cl | inactive: 8.76%
COc1ccc(-n2cnnc2SC(C)C(=O)Nc2cccc([N+](=O)[O-])c2)cc1 (stereo unspecified) | inactive: 12.7%
COc1ccc(/C=C(/NC(=O)c2ccco2)C(=O)Nc2cccc(C(=O)O)c2)cc1 | inactive: 5.01%
COC(=O)c1c(NC(=O)/C=C/c2ccco2)sc2c1CCC2 | inactive: 2.42%
COc1ccc(S(=O)(=O)Nc2ccccc2C(=O)N2CCOCC2)cc1OC | inactive: -11.2%
Cn1c(=O)c(=O)n(C)c2cc(C(=O)NCc3ccccc3Cl)ccc21 | inactive: 4.83%
Cc1ccccc1Nc1nc(N)nc(COC(=O)c2c(C)noc2C)n1 | inactive: 13.7%
CCCCN(CC)CCCNC(=O)c1cc2c(=O)n(CC)c3ccccc3c2s1 | inactive: -10.7%
NS(=O)(=O)c1ccc(CCNC(=O)CNC(=O)c2ccc(F)cc2)cc1 | inactive: 6.14%
COc1cccc(NC(=S)N2CCC(N(C)CC3CCCO3)CC2)c1 (stereo unspecified) | inactive: 2.11%
COc1cc(COc2ccc(-c3nnco3)cc2)ccc1OC(F)F | inactive: 1.54%
Cc1ccc(-c2nnn(CC(=O)N(c3ccccc3)C(C(=O)NCC3CCCO3)c3ccc(F)cc3)n2)o1 (stereo unspecified) | inactive: -13.5%
Cc1csc(NC(=O)Cn2nc(C)c([N+](=O)[O-])c2C)n1 | inactive: 11%
CCOc1ccc(N(C)S(=O)(=O)c2ccc(C)c(C(=O)N3CCN(Cc4ccc5c(c4)OCO5)CC3)c2)cc1 | inactive: 5.77%
CCOC(=O)Cn1nc(NC(=O)c2ccc3c(c2)OCO3)cc1C | inactive: 6.56%
COc1ccc(CNC(=O)CSc2nnc(NC(=O)C3CC3)s2)cc1 | inactive: -9.2%
CCOc1ccc(/C=N/NC(=O)C(OC)c2ccccc2)cc1 (stereo unspecified) | inactive: 13.2%
COc1ccc(C(=O)NCC(=O)OCC(=O)N2N=C(c3ccc(Cl)cc3)CC2c2ccco2)cc1OC (stereo unspecified) | inactive: 5.33%
Cc1ccc2[nH]cc(/C=C/c3cc[n+](C)cc3)c2c1 | inactive: -8.05%
CS(=O)(=O)c1cccc(C(=O)OCC(=O)NC(=O)Nc2ccccc2F)c1 | inactive: 9.57%
O=C(CCC1CCCCC1)NC1=NCCS1 | inactive: -18.9%

SMILES | growth rescue (activation)
CC(C)CCNc1ncnc2c1nnn2Cc1ccccc1 | inactive: 18.8%
CCNC(=O)C1(C)CCN(C(=O)c2ccc(-c3ccccc3)cc2)C1 (stereo unspecified) | inactive: 3.37%
Cc1ccccc1NS(=O)(=O)c1ccc2c(c1)n(C)c(=O)n2C | inactive: 9.77%
Cc1c(NC(=O)c2ncn[nH]2)cccc1-c1nc2ccccc2s1 | inactive: 12.6%
COc1cc2[nH]c(C(=O)NCc3ccccc3)cc2c(OC)c1OC | inactive: 13.3%
O=[N+]([O-])c1cc(S(=O)(=O)N2CCOCC2)ccc1N1CCNCC1 | inactive: 21%
CC1CCc2c(sc(NC(=O)CCCn3cnc([N+](=O)[O-])n3)c2C(N)=O)C1 (stereo unspecified) | inactive: 14.8%
O=C1N=c2ccccc2=C1c1sc(=S)n(-c2ccc(O)cc2)c1O | inactive: 15.2%
Cc1ccc(C)c(-n2c(CNC(=O)c3ccco3)nnc2SCC(=O)N2CCc3ccccc32)c1 | inactive: 24.9%
O=C(CSc1cn[nH]n1)Nc1ccc(O)c(C(=O)O)c1 | inactive: 5.21%
CCOC(=O)c1c(C)n(C)c2cc(CN(C)C)c(O)c(S(=O)(=O)c3ccccc3)c12 | inactive: 1.27%
O=C(O)CCc1nn2c3ccccc3n(CC(=O)O)c2nc1=O | inactive: -16.3%
O=C1CNC(=O)/C1=C\c1ccc(O)cc1 | inactive: 13%
CC(OC(=O)C1CCC(=O)N1)C(=O)Nc1cc(Cl)cc(Cl)c1 (stereo unspecified) | inactive: 3.89%
COC(=O)C1=C(C)N(Cc2cccnc2)C(=O)/C1=C\c1sccc1C | inactive: 5.61%
O=C(c1ccco1)N1CCCN(Cc2nc(-c3ccc4c(c3)OCO4)no2)CC1 | inactive: 6.52%
CCOc1cc(C(=S)N2CCOCC2)ccc1OS(=O)(=O)c1ccc(Br)cc1 | inactive: 8.17%
O=C(N1CCCCC1)N1CCN(C(=O)N2CCCCC2)CC1 | inactive: -18.7%
COc1ccc(C(CCNCc2ccccc2)c2ccc(F)cc2)cc1 (stereo unspecified) | inactive: 16.2%
O=C(NCc1nc2ccccc2[nH]1)c1cccc(S(=O)(=O)N2CCCC2)c1 | inactive: -14.9%
CCOC(=O)c1cnc(-n2nc(C)cc2C)nc1Oc1ccc(C#N)cc1 | inactive: -5.45%
Cc1cccc(NC(=O)Cn2c(/C=C/c3ccccc3)nc3ccccc32)c1 | inactive: 9.35%

SMILES | growth rescue (activation)
CC1(C(=O)NS(=O)(=O)c2ccccc2Cl)CCN1C(=O)Cc1ccccc1Cl (stereo unspecified) | inactive: 9.93%
CCOC(=O)c1ccc(N2C(=O)C(CC(=O)NC)N(CCc3ccc(OC)c(OC)c3)C2=S)cc1 (stereo unspecified) | inactive: 21.5%
COc1cc2[nH]c(=O)n(CCC(=O)NCCCN3CCN(c4ccccc4F)CC3)c(=O)c2cc1OC | inactive: -4.68%
COc1cc(/C=N/N=C(\N)c2nonc2N)cc(OC)c1OC | inactive: -20.4%
N/C(=N\OCC(=O)Nc1ccc(F)c(Cl)c1)c1ccccc1 | inactive: 20.6%
COc1ccc(C)cc1NC(=O)CCNC(=O)c1ccco1 | inactive: -16.3%
Cc1ccc(S(=O)(=O)N(C)c2ccc(OC(=O)c3cccs3)cc2)cc1 | inactive: -28.6%
COc1ccc(-c2nc(-c3cccs3)no2)cc1 | inactive: -4.44%
O=C(Nc1ccc(C(=O)O)cc1)/C(=C\c1ccccc1)NC(=O)c1ccccc1 | inactive: 4.89%
Cc1c(NC(=O)c2cccc(-c3cc4ccccc4oc3=O)c2)cccc1-c1nc2ncccc2o1 | inactive: -10.7%
CCN(CC)CCCNC(=O)c1cn(CC(C)C)c(=O)c2c1c1ccccc1n2C | inactive: -1.45%
Cc1ccc2nc(-c3ccsc3)c(Nc3ccc(Cl)cc3)n2c1 | inactive: 0.918%
CCOc1ccc(C(=O)Cc2cc3cccc(OC)c3oc2=O)cc1 | inactive: 9.64%
CCOc1ccc(C(=O)Nc2ccc3c(c2)OCCO3)cc1 | inactive: 23.9%
O=C(NC1CCN(Cc2ccccc2)CC1)c1ccccc1NS(=O)(=O)c1ccc(F)cc1 | inactive: 18.8%
Nc1nnc(CSCc2ccc(Cl)cc2)s1 | inactive: 16.2%
CC(=O)c1cccc(NC(=O)[C@H]2O[C@@H]3OC(C)(C)O[C@@H]3[C@H]3OC(C)(C)O[C@H]32)c1 | inactive: 11.5%
O=C(NCc1ccc(Cl)cc1)C(=O)N/N=C/c1ccc(Br)cc1 | inactive: -3.92%
COc1ccc(Cc2noc(CN(C)CCc3ccccc3)n2)cc1OC | inactive: 5.57%
COc1ccc(OCC(=O)N(Cc2sccc2C)C2CCS(=O)(=O)C2)cc1 (stereo unspecified) | inactive: 6.79%
COCCCNC(=O)C(CC(N)=O)NC(=O)OCc1ccccc1 (stereo unspecified) | inactive: 28.7%
Cc1ccc(NC(=O)CSc2nnc(-c3ccncc3)n2C)cc1S(=O)(=O)N1CCOCC1 | inactive: -5.83%

SMILES | growth rescue (activation)
CCSc1nnc(NC(=O)COc2ccccc2[N+](=O)[O-])s1 | inactive: 3.9%
O=C(NC1CC2CCCC(C1)N2C(=O)Nc1ccccc1F)C1CC1 (stereo unspecified) | inactive: -2.59%
O=C(COc1ccc(/C=N/NS(=O)(=O)c2ccccc2)cc1)N1CCOCC1 | inactive: -10.4%
Cc1[nH]c(=O)[nH]c(=O)c1S(=O)(=O)N(CC(C)C)CC(C)C | inactive: 1.82%
S=c1[nH]nc(-c2ccncc2)n1CC1CCCO1 (stereo unspecified) | inactive: -3.06%
CN1CCN(S(=O)(=O)c2cccc(C#N)c2)C(c2ccccc2)C1 (stereo unspecified) | inactive: -18.8%
COc1ccc(S(=O)(=O)N2CCN(C3CCCCCCC3)CC2)cc1 | inactive: -3.29%
O=C(NCC(c1ccco1)N1CCCCC1)c1ccc2c(c1)S(=O)(=O)c1ccccc1C2=O (stereo unspecified) | inactive: 7.04%
O=C(Nc1cccc(C(F)(F)F)c1)c1cccnn1 | inactive: 14.1%
O=C(N/N=C/c1ccccc1)c1cc[n+]([O-])cc1 | inactive: 12.4%
COCCCn1c(SCC(=O)O)nc2cc(OC)c(OC)cc2c1=N | inactive: -7.27%
Cc1cccc(-c2noc(CCCC(=O)NC3CCCC3)n2)c1 | inactive: -4.76%
CCn1nc(C(=O)NCCc2ccc3c(c2)OCCO3)c2ccccc2c1=O | inactive: 34%
CC(NC(=O)Nc1ccc([N+](=O)[O-])cc1)C(c1cccs1)N1CCCC1 (stereo unspecified) | inactive: -11.1%
COc1ccc(-c2ccc(-c3noc(-c4ccccc4C)n3)c(OC)n2)cc1 | inactive: 12.8%
COc1cccc(C(=O)NCCOc2cc(C)cc(C)c2)c1 | inactive: 28%
O=C(CN1C(=O)COc2ccccc21)N1CCN(C2CCCCC2)CC1 | inactive: -0.0463%
COc1ccc(N2CCN(C(=O)C3CCN(S(=O)(=O)c4ccc(F)cc4)CC3)CC2)cc1 | inactive: 19.4%
O=C(CSc1n[nH]c(-c2cccnc2)n1)Nc1ccc(Cl)cc1 | inactive: 2.19%
COc1ccccc1/C=C/C=N/NC(=O)c1cc(-c2ccc(C)o2)[nH]n1 | inactive: 23.6%
CCc1ccc(OCC(=O)Nc2ccc3c(c2)OCCO3)cc1 | inactive: 26.6%
CC12COC3(C(=O)Nc4ccc(F)cc4)CC1CCC32C (stereo unspecified) | inactive: -6.37%

SMILES | growth rescue (activation)
Cc1ccc(S(=O)(=O)N2CCN(CC3CC4C=CC3C4)CC2)cc1 (stereo unspecified) | inactive: 7.37%
CC(=O)N1CC2(c3ccccc3)CN(C(C)=O)CC(c3ccccc3)(C1)C2=O | inactive: 1.81%
CC(NC(=O)Nc1cccc(Cl)c1)C(c1cccs1)N1CCCC1 (stereo unspecified) | inactive: 8.77%
CC1CC(C)CN(CC(=O)NC(c2ccccc2)c2ccccc2)C1 (stereo unspecified) | inactive: -4.23%
COc1ccc(N(CC(=O)N/N=C/c2ccc(OC)cc2OC)S(=O)(=O)c2ccccc2)cc1 | inactive: -15.5%
CC(=O)Nc1cc(-c2cccc(C(=O)NCCN(C)C)c2)cn2c(-c3ccccc3)cnc12 | inactive: -3.02%
Cc1cc(/C=C(/C#N)C(=O)O)c(C)n1CCC(C)C | inactive: 14%
CCOc1ccc(C(C(=O)NCCC(C)C)N(CCO)C(=O)c2snc(C(N)=O)c2N)cc1 (stereo unspecified) | inactive: 5.99%
Cc1cccc(C)c1NC(=S)N/N=C/c1ccc(C(=O)O)cc1 | inactive: 20.8%
COCCNC(=O)CSc1nc2c(n1-c1ccccc1)CCCC2 | inactive: -8.25%
O=C(CSc1n[nH]c(-c2ccncc2)n1)c1cccc([N+](=O)[O-])c1 | inactive: -8.91%
COc1ccc(S(=O)(=O)N(CC(=O)O)c2ccccn2)cc1 | inactive: 26.3%
Cc1ccc2nc(N/C(=N/S(=O)(=O)c3ccc(F)cc3F)c3ccccc3)sc2c1 | inactive: -6.08%
CCCC(=O)OCCNc1cc(SCc2ccco2)c2nonc2c1[N+](=O)[O-] | inactive: -15.5%
COC(=O)c1c(O)cc(=O)n2c1CCCCC2 | inactive: -0.653%
O=C(CSc1nnc(-c2ccc(O)cc2)o1)Nc1cccc(O)c1 | inactive: 11.7%
COc1ccc(C(=O)N/N=C/c2c(CO)cnc(C)c2O)cc1 | inactive: -4.84%
O=C(COc1ccccc1)Nc1ccc(S(=O)(=O)Nc2ccccn2)cc1 | inactive: -11.4%

Source: PubChem BioAssay AID1347073 (National Center for Advancing Translational Sciences (NCATS), 2019)
